Results reported in publication PMC6249969.
These are yes or no findings as the source states them, for the method shown. For some of these results: Binding seen in cells or lysates may run through a third protein. Some results given as binding are weak or reduced against the parent protein; the word gives no strength. Sequences can lack the tags named with a protein.

By UniProt entry, the sequences of proteins in these tests, tags left out.
UniProt Q9SJM0: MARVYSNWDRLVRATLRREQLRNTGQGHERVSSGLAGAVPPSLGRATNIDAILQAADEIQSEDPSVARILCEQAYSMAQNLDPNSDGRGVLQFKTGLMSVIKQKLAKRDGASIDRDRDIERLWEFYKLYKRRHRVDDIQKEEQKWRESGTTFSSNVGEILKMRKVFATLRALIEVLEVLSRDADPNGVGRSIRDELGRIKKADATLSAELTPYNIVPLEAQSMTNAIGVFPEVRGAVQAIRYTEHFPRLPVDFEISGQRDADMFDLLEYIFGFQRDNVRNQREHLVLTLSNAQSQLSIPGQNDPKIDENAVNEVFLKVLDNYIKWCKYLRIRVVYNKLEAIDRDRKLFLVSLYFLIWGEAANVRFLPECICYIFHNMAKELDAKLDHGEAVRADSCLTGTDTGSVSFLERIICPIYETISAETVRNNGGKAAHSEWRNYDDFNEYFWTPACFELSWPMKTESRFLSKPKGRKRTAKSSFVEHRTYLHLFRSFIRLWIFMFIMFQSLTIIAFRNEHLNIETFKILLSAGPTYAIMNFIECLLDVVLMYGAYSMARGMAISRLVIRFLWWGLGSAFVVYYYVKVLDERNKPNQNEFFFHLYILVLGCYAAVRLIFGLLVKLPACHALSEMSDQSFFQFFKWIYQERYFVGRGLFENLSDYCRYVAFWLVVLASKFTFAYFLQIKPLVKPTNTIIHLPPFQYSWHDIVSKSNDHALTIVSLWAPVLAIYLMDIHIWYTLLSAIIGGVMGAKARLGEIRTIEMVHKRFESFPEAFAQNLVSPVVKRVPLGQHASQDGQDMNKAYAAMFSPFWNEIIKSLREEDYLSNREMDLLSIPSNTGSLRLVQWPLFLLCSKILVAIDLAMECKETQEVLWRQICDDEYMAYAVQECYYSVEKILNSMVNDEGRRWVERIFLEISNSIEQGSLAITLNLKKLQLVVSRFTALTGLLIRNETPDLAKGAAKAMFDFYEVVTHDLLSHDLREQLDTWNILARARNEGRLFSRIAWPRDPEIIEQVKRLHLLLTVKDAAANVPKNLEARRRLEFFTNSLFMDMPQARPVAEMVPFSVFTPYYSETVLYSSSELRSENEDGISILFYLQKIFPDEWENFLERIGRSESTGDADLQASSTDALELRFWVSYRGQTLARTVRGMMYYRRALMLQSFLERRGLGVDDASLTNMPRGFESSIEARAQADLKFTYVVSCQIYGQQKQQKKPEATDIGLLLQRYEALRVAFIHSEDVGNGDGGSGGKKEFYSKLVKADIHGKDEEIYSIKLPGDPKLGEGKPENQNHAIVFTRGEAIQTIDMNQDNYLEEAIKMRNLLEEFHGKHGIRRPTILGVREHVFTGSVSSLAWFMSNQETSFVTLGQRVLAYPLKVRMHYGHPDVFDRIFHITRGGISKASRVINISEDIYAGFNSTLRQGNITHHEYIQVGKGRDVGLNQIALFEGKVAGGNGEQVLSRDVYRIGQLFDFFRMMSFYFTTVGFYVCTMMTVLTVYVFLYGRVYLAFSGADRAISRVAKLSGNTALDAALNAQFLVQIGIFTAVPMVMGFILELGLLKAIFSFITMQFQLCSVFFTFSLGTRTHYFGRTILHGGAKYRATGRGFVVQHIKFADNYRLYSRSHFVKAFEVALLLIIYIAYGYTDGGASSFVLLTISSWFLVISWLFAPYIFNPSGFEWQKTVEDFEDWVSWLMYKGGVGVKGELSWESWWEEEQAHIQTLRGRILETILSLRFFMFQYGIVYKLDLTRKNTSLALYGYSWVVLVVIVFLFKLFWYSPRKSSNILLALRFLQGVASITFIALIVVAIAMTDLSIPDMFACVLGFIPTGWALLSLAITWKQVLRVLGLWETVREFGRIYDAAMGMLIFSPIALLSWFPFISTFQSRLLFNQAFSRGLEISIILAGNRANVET
UniProt Q9SFU6: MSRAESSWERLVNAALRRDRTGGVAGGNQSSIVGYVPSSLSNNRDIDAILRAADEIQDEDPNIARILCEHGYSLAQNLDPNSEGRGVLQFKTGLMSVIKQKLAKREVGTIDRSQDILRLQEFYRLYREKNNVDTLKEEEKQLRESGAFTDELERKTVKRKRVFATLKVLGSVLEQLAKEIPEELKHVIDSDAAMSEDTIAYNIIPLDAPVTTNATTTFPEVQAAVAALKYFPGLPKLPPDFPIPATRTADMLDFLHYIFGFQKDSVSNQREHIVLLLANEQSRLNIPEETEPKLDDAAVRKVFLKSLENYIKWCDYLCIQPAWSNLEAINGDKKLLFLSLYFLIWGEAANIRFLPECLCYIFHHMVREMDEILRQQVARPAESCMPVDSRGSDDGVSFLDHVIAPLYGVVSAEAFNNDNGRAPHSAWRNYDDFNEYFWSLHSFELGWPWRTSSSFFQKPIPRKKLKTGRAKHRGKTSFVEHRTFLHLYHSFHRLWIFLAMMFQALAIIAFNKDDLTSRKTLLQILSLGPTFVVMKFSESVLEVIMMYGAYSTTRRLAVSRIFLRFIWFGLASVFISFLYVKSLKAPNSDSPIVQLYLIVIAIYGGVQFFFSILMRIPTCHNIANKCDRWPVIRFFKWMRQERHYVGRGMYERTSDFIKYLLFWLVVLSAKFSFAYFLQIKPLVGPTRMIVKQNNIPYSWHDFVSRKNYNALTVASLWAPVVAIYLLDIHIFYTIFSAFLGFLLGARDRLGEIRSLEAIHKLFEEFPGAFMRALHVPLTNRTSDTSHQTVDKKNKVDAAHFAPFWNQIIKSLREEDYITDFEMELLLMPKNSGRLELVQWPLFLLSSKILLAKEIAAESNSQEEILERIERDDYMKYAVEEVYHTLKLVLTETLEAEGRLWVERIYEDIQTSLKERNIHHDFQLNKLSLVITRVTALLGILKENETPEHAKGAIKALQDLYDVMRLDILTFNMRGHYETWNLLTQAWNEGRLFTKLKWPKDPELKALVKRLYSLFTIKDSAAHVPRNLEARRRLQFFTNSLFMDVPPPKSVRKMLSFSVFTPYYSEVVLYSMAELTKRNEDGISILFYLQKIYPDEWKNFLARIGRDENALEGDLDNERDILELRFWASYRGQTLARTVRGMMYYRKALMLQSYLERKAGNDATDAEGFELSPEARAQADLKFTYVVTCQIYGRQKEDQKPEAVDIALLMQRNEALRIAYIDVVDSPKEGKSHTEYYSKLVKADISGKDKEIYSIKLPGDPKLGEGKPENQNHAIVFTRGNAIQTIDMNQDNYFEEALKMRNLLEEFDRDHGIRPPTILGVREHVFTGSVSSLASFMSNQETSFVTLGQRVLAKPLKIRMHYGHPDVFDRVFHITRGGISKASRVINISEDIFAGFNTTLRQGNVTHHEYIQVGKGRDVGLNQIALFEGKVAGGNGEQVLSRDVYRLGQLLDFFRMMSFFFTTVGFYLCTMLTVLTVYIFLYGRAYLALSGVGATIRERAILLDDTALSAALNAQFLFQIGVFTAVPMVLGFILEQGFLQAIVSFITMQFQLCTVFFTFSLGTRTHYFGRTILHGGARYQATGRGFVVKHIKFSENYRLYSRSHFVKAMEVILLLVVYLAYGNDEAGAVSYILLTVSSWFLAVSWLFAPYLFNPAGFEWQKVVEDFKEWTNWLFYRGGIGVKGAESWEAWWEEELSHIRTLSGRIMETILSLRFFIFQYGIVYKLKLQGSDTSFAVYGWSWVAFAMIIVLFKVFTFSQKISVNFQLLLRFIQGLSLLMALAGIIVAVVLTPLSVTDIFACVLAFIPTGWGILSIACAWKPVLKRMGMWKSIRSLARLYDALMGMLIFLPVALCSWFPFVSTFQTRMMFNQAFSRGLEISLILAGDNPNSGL
UniProt P49040: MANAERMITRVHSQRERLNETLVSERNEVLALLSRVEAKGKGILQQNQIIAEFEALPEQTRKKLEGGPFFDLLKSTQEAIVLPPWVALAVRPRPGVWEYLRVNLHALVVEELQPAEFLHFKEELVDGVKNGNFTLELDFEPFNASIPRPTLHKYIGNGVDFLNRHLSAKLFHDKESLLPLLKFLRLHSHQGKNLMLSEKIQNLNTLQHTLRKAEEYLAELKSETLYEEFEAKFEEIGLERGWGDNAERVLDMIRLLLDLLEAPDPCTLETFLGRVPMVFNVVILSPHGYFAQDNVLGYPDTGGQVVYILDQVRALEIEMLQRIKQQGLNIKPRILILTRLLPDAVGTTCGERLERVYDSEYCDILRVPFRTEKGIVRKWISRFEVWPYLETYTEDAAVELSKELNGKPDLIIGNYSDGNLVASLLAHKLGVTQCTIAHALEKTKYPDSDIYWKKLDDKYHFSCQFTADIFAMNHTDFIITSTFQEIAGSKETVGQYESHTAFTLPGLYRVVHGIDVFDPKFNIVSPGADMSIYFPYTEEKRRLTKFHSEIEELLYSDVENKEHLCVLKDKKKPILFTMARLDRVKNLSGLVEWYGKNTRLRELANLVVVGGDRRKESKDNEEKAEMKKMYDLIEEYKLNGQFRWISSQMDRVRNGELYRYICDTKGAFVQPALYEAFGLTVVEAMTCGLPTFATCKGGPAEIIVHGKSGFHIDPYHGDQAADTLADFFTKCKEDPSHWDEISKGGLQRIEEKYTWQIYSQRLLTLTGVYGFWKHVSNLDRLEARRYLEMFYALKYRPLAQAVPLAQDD

Molecular target: GLUCAN SYNTHASE-LIKE 8 (GSL8), bait of the membrane yeast two hybrid system (MYTH) (Arabidopsis thaliana) (UniProt Q9SJM0)
Experiment: two-hybrid; membrane yeast two hybrid system (MYTH); bait GSL8 in pAMBV, preys in pPR3-C; colony growth on SD-Leu-Trp (TSM) against SD-Leu-Trp-Ade-His (ISM)

| Molecule | binding |
| --- | --- |
| GLUCAN SYNTHASE-LIKE 10 (GSL10), prey of the MYTH (from UniProt Q9SFU6 1-1890) | binds |
| AtBG_PPAP (a β-1,3-glucanase), prey of the MYTH (enzyme, UniProt Q9FHX5 27-401) IGINYGQVANNLPPPKNVIPLLKSVGATKVKLYDADPQALRAFAGSGFELTVALGNEYLAQMSDPIKAQGWVKENVQAYLPNTKIVAIVVGNEVLTSNQSALTAALFPAMQSIHGALVDCGLNKQIFVTTAHSLAILDVSYPPSATSFRRDLLGSLTPILDFHVKTGSPILINAYPFFAYEENPKHVSLDFVLFQPNQGFTDPGSNFHYDNMLFAQVDAVYHALDAVGISYKKVPIVVSETGWPSNGDPQEVGATCDNARKYNGNLIKMMMSKKMRTPIRPECDLTIFVFALFNENMKPGPTSERNYGLFNPDGTPVYSLGIKTSSTHSSGSGSSNSTGGSSSGGGGNTGGSSSGGGIYQPVTGNPSPDYMSISS | binds |

More lines, now with the values ahead:

| binding | Molecule |
| --- | --- |
| binds weakly | SUCROSE SYNTHASE 1 (SUS1), prey of the MYTH (from UniProt P49040 1-808) (enzyme) |
| binds weakly | stomatal cytokinesis-defective 1 (SCD1), prey of the MYTH (protein, UniProt Q8RXA7 1-1187) MGRIFEYFVVCGLGPEMRTVDGDLGFHGMQTFYLPALLDQFPPTDQSPYPAPPPQLPTCVLPAGVEFHSSGFVSSDPASFPRSYPIVLTEGDGSKIFVSCIAFRDRVCEDIIEAYRLPPNTYADKCICLVSHAPNFRVLRNSLEEIFVLCFSSEGSCKPLWDIIAYMVSNVPLPTPGKDRVLFAVENCLLSVEAPPEDSLPQADISLQPLVQCLDVDNLIKLFTSVLVERRILIRSNKYSLLTLVSESICHLIYPFRWLQVYIPLLFFSGVDYIDAPTPYMMGLHSDVDTSNLAMDGVVVVDLDINQITTSEEIPQIPEPEFSTLRNDILKLLHPNVVAIDQLKGFGNSVEQCPKSLSKPWGEDHDLQLRVIFLKCFASILGGYRNFIENKVFSTDAFLKRRSRSTNQPPEPMLVQFLGSFAFLDYLERRLSSDEKSTNLLEKLQDAVGRGQDAMSILPKSSMEPEIITIAEPEVEESATRYTYDRFPASVRSEEQEEKRKQILAAASGALESNGRHPPSSPPGKNTKEDNFSSMERAAERERMVLDIQVKLQGLWLRLLKLGSDEDPLSSFEYGTILALIESDAEGIGGSGFIECIREHLYSGWHGQLSEEQFIAVKELLKMAVGRAASRSDLSTVRDALEVSAEMFKKDANNVSDYVQRHLISIPIWEELRFWEGYFEYLMEQPANESVNYATLVTARLIIVASHMAGLGLPDTEAWNMIETIAEKQKLGYKLLIKLRGFLSHVQQLRVGYWGASSFKQQAISAGLPSPRPKDVSVSDETQQPSEASGRSWVQSMFSRDTASRANSFSRVRKWVSDNASSDITAAAQKKIQTNVRVLKGHGGAVTALHSVTRREVCDLVGDREDAGFFISGSTDCLVKIWDPSLRGSELRATLKGHTGTVRAISSDRGKIVSGSDDLSVIVWDKQTTQLLEELKGHDSQVSCVKMLSGERVLTAAHDGTVKMWDVRTDMCVATVGRCSSAILSLEYDDSTGILAAAGRDTVANIWDIRSGKQMHKLKGHTKWIRSIRMVEDTLITGSDDWTARVWSVSRGSCDAVLACHAGPVQSVEYSPFDKGIITGSADGLLRFWENDEGGIKCVKNITLHSSSILSINAGENWLGIGAADNSMSLFHRPSNAGTKVSGWQLYRVPQRTAAVVRCVASDLERKRICSGGRNGVLRLWDATINI |
| binds | PLASMODESMATA-LOCALIZED PROTEIN 5 (PDLP5), prey of the MYTH (protein, UniProt Q8GUJ2 26-299) SPTDNYIYAVCSPAKFSPSSGYETNLNSLLSSFVTSTAQTRYANFTVPTGKPEPTVTVYGIYQCRGDLDPTACSTCVSSAVAQVGALCSNSYSGFLQMENCLIRYDNKSFLGVQDKTLILNKCGQPMEFNDQDALTKASDVIGSLGTGDGSYRTGGNGNVQGVAQCSGDLSTSQCQDCLSDAIGRLKSDCGMAQGGYVYLSKCYARFSVGGSHARQTPGPNFGHEGEKGNKDDNGVGKTLAIIIGIVTLIILLVVFLAFVGKCCRKLQDEKWCK |

Molecular target: GLUCAN SYNTHASE-LIKE 8 (GSL8) fused to YFP (Arabidopsis thaliana) (UniProt Q9SJM0)
Experiment: FRET or BRET; FRET by acceptor photobleaching in infiltrated N. bentamiana leaves, 3 dpi; GSL8-YFP (acceptor) with candidate interactor fused to CFP (donor)

| binding | Molecule |
| --- | --- |
| binds | SUCROSE SYNTHASE 1 (SUS1) fused to CFP (from UniProt P49040 1-808) (enzyme) |
| binds | AtBG_PPAP (a β-1,3-glucanase) fused to CFP (enzyme, UniProt Q9FHX5 27-401) IGINYGQVANNLPPPKNVIPLLKSVGATKVKLYDADPQALRAFAGSGFELTVALGNEYLAQMSDPIKAQGWVKENVQAYLPNTKIVAIVVGNEVLTSNQSALTAALFPAMQSIHGALVDCGLNKQIFVTTAHSLAILDVSYPPSATSFRRDLLGSLTPILDFHVKTGSPILINAYPFFAYEENPKHVSLDFVLFQPNQGFTDPGSNFHYDNMLFAQVDAVYHALDAVGISYKKVPIVVSETGWPSNGDPQEVGATCDNARKYNGNLIKMMMSKKMRTPIRPECDLTIFVFALFNENMKPGPTSERNYGLFNPDGTPVYSLGIKTSSTHSSGSGSSNSTGGSSSGGGGNTGGSSSGGGIYQPVTGNPSPDYMSISS |
| binds | PLASMODESMATA-LOCALIZED PROTEIN 5 (PDLP5) fused to CFP (protein, UniProt Q8GUJ2 26-299) SPTDNYIYAVCSPAKFSPSSGYETNLNSLLSSFVTSTAQTRYANFTVPTGKPEPTVTVYGIYQCRGDLDPTACSTCVSSAVAQVGALCSNSYSGFLQMENCLIRYDNKSFLGVQDKTLILNKCGQPMEFNDQDALTKASDVIGSLGTGDGSYRTGGNGNVQGVAQCSGDLSTSQCQDCLSDAIGRLKSDCGMAQGGYVYLSKCYARFSVGGSHARQTPGPNFGHEGEKGNKDDNGVGKTLAIIIGIVTLIILLVVFLAFVGKCCRKLQDEKWCK |

Molecular target: GLUCAN SYNTHASE-LIKE 8 (GSL8) fused to YC (Arabidopsis thaliana) (UniProt Q9SJM0)
Experiment: split reporter; BiFC in infiltrated four-week-old N. bentamiana leaves; GSL8-YC with candidate interactors fused to YN; confocal imaging 3 days post infiltration

| Molecule | binding |
| --- | --- |
| GmIFS2-YN, an ER membrane-localized protein from soybean (protein, UniProt Q9SWR5 1-521) MLLELALGLLVLALFLHLRPTPTAKSKALRHLPNPPSPKPRLPFIGHLHLLKDKLLHYALIDLSKKHGPLFSLYFGSMPTVVASTPELFKLFLQTHEATSFNTRFQTSAIRRLTYDSSVAMVPFGPYWKFVRKLIMNDLLNATTVNKLRPLRTQQIRKFLRVMAQGAEAQKPLDLTEELLKWTNSTISMMMLGEAEEIRDIAREVLKIFGEYSLTDFIWPLKHLKVGKYEKRIDDILNKFDPVVERVIKKRREIVRRRKNGEVVEGEVSGVFLDTLLEFAEDETMEIKITKDHIKGLVVDFFSAGTDSTAVATEWALAELINNPKVLEKAREEVYSVVGKDRLVDEVDTQNLPYIRAIVKETFRMHPPLPVVKRKCTEECEINGYVIPEGALILFNVWQVGRDPKYWDRPSEFRPERFLETGAEGEAGPLDLRGQHFQLLPFGSGRRMCPGVNLATSGMATLLASLIQCFDLQVLGPQGQILKGGDAKVSMEERAGLTVPRAHSLVCVPLARIGVASKLLS | no binding |
| AtBG_PPAP (a β-1,3-glucanase) fused to YN (enzyme, UniProt Q9FHX5 27-401) IGINYGQVANNLPPPKNVIPLLKSVGATKVKLYDADPQALRAFAGSGFELTVALGNEYLAQMSDPIKAQGWVKENVQAYLPNTKIVAIVVGNEVLTSNQSALTAALFPAMQSIHGALVDCGLNKQIFVTTAHSLAILDVSYPPSATSFRRDLLGSLTPILDFHVKTGSPILINAYPFFAYEENPKHVSLDFVLFQPNQGFTDPGSNFHYDNMLFAQVDAVYHALDAVGISYKKVPIVVSETGWPSNGDPQEVGATCDNARKYNGNLIKMMMSKKMRTPIRPECDLTIFVFALFNENMKPGPTSERNYGLFNPDGTPVYSLGIKTSSTHSSGSGSSNSTGGSSSGGGGNTGGSSSGGGIYQPVTGNPSPDYMSISS | binds |

Further lines, results first:

| binding | Molecule |
| --- | --- |
| binds | SUCROSE SYNTHASE 1 (SUS1) fused to YN (from UniProt P49040 1-808) (enzyme) |
| binds | stomatal cytokinesis-defective 1 (SCD1) fused to YN (protein, UniProt Q8RXA7 1-1187) MGRIFEYFVVCGLGPEMRTVDGDLGFHGMQTFYLPALLDQFPPTDQSPYPAPPPQLPTCVLPAGVEFHSSGFVSSDPASFPRSYPIVLTEGDGSKIFVSCIAFRDRVCEDIIEAYRLPPNTYADKCICLVSHAPNFRVLRNSLEEIFVLCFSSEGSCKPLWDIIAYMVSNVPLPTPGKDRVLFAVENCLLSVEAPPEDSLPQADISLQPLVQCLDVDNLIKLFTSVLVERRILIRSNKYSLLTLVSESICHLIYPFRWLQVYIPLLFFSGVDYIDAPTPYMMGLHSDVDTSNLAMDGVVVVDLDINQITTSEEIPQIPEPEFSTLRNDILKLLHPNVVAIDQLKGFGNSVEQCPKSLSKPWGEDHDLQLRVIFLKCFASILGGYRNFIENKVFSTDAFLKRRSRSTNQPPEPMLVQFLGSFAFLDYLERRLSSDEKSTNLLEKLQDAVGRGQDAMSILPKSSMEPEIITIAEPEVEESATRYTYDRFPASVRSEEQEEKRKQILAAASGALESNGRHPPSSPPGKNTKEDNFSSMERAAERERMVLDIQVKLQGLWLRLLKLGSDEDPLSSFEYGTILALIESDAEGIGGSGFIECIREHLYSGWHGQLSEEQFIAVKELLKMAVGRAASRSDLSTVRDALEVSAEMFKKDANNVSDYVQRHLISIPIWEELRFWEGYFEYLMEQPANESVNYATLVTARLIIVASHMAGLGLPDTEAWNMIETIAEKQKLGYKLLIKLRGFLSHVQQLRVGYWGASSFKQQAISAGLPSPRPKDVSVSDETQQPSEASGRSWVQSMFSRDTASRANSFSRVRKWVSDNASSDITAAAQKKIQTNVRVLKGHGGAVTALHSVTRREVCDLVGDREDAGFFISGSTDCLVKIWDPSLRGSELRATLKGHTGTVRAISSDRGKIVSGSDDLSVIVWDKQTTQLLEELKGHDSQVSCVKMLSGERVLTAAHDGTVKMWDVRTDMCVATVGRCSSAILSLEYDDSTGILAAAGRDTVANIWDIRSGKQMHKLKGHTKWIRSIRMVEDTLITGSDDWTARVWSVSRGSCDAVLACHAGPVQSVEYSPFDKGIITGSADGLLRFWENDEGGIKCVKNITLHSSSILSINAGENWLGIGAADNSMSLFHRPSNAGTKVSGWQLYRVPQRTAAVVRCVASDLERKRICSGGRNGVLRLWDATINI |
| binds | PLASMODESMATA-LOCALIZED PROTEIN 5 (PDLP5) fused to YN (protein, UniProt Q8GUJ2 26-299) SPTDNYIYAVCSPAKFSPSSGYETNLNSLLSSFVTSTAQTRYANFTVPTGKPEPTVTVYGIYQCRGDLDPTACSTCVSSAVAQVGALCSNSYSGFLQMENCLIRYDNKSFLGVQDKTLILNKCGQPMEFNDQDALTKASDVIGSLGTGDGSYRTGGNGNVQGVAQCSGDLSTSQCQDCLSDAIGRLKSDCGMAQGGYVYLSKCYARFSVGGSHARQTPGPNFGHEGEKGNKDDNGVGKTLAIIIGIVTLIILLVVFLAFVGKCCRKLQDEKWCK |
